This is one part of the list. Single values are uncertain, as repeats are few or missing.
Experiments:
Assay in all cases: cell viability relative to vehicle (% of vehicle); basal-like triple-negative breast cancer lines; higher = less cytotoxic
Settings in all cases: 10 µM; 72 h
HCC-1143 = tested on: HCC-1143
HCC-1187 = tested on: HCC-1187
MDA-468 = tested on: MDA-468
SUM-149 = tested on: SUM-149
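Further: stably firefly luciferase-GFP labeled cells in 96-well plates, viability read as luciferase photon flux after d-luciferin addition, treated wells normalized to vehicle wells, single-dose high-throughput screen.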

Cc1cccc(Cc2cnc[nH]2)c1C.Cl [Detomidine HCl]
cell viability (HCC-1143): 77.1 | cell viability (HCC-1187): 87.3 | cell viability (MDA-468): 86.6 | cell viability (SUM-149): 106

CCC1=C[C@H]2CN3CCc4c([nH]c5ccccc45)[C@@](C(=O)OC)(C2)[C@@H]13 [Catharanthine]
cell viability (HCC-1143): 82.9 | cell viability (HCC-1187): 79.4 | cell viability (MDA-468): 121 | cell viability (SUM-149): 103

CCCCCCCCCCCC[N+](C)(C)CCOc1ccccc1.[Br-] [Domiphen Bromide]
cell viability (HCC-1143): 19.3 | cell viability (HCC-1187): 25.7 | cell viability (MDA-468): 31.4 | cell viability (SUM-149): 29.6

CCOC(=O)c1cncn1C(C)c1ccccc1 (stereo not drawn) [Etomidate]
cell viability (HCC-1143): 99.4 | cell viability (HCC-1187): 98.8 | cell viability (MDA-468): 89.6 | cell viability (SUM-149): 117

O=C(OC1C[N+]2(CCCOc3ccccc3)CCC1CC2)C(O)(c1cccs1)c1cccs1.[Br-] (stereo not drawn) [Aclidinium Bromide]
cell viability (HCC-1143): 87.8 | cell viability (HCC-1187): 85.4 | cell viability (MDA-468): 97.3 | cell viability (SUM-149): 119

C[C@@H]1CC[C@H]2[C@@H](C)C(=O)O[C@@H]3OC4(C)CC[C@@H]1[C@]32OO4 [Artemisinine]
cell viability (HCC-1143): 133 | cell viability (HCC-1187): 105 | cell viability (MDA-468): 89.3 | cell viability (SUM-149): 116

O=c1[nH]c2ccccc2n1C1CCN(CCCC(c2ccc(F)cc2)c2ccc(F)cc2)CC1 [Pimozide]
cell viability (HCC-1143): 71.5 | cell viability (HCC-1187): 83.9 | cell viability (MDA-468): 111 | cell viability (SUM-149): 72.2

— the supplement of paper PMC8512760
